Measured values reported in the supplement of paper PMC3334620.
The full ranking holds about 33,000 sequences; the median of “E-score (-0.5 to 0.5)” is about -0.017, and the highest 2% start at about 0.3. The list shows a part of the results.

These sequences were tested against T1, Sut1 (UniProt P53032) (assay: PBM E-score (8-mer binding enrichment) (E-score (-0.5 to 0.5)); higher = stronger / more preferred TF binding; most listed sequences are background and not binding sites). Details: protein concentration: 200 nM; construct: GST-full length.
T1 sequence: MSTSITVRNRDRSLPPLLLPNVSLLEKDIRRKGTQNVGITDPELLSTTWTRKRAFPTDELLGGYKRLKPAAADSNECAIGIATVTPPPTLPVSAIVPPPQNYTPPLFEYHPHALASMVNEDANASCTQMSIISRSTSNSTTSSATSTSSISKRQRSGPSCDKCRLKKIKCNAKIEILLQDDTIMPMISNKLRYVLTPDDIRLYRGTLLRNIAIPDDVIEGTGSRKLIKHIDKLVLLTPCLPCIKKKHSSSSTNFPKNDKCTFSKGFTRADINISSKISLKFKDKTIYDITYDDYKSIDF
Procedure, shortened: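 Yeast transcription factors carrying a GST tag, as full-length proteins or DNA-binding domains, were produced by PURExpress in vitro transcription/translation. About 100-200 nM protein was applied to universal all-10-mer Agilent arrays, double-stranded by primer extension on fresh or once-stripped slides. Bound protein was detected with fluorescent anti-GST, and scans were normalised with masliner. The Universal PBM Analysis Suite gave each ungapped eight-base word, pooled with its reverse complement, an E-score, a modified Wilcoxon-Mann-Whitney statistic.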

Row | Sequence | PBM E-score
1 | CTTTCACA | 0.228
2 | AAAATTAA | 0.221
3 | AAGATGCA | 0.041
4 | CCGAGTCC | 0.196
5 | TAATTGAA | 0.151
6 | GATCCCGC | -0.0295
7 | CGAGATCG | -0.0611
8 | AATCCCAT | -0.147
9 | CCAGCGCC | -0.212
10 | AGACGAAA | 0.148
11 | ATAAATGA | 0.216
12 | CGCGTCCA | -0.207
13 | GGATACCC | -0.131
14 | CGCCTTTC | 0.0174
15 | ATGCACCA | -0.134
16 | AACTTTAC | 0.113
17 | AAGCGAAT | 0.0646
18 | GCTTCTCA | -0.145
19 | CCGGTAGG | -0.0706
20 | AACTACTC | 0.243
21 | CCTCGGGA | -0.294
22 | AGTCTTTC | 0.0659
23 | CACTCGGC | -0.0174
24 | CCATATCA | 0.0517

Row | Sequence | PBM E-score
25 | CGACCCGC | -0.273
26 | AGCTTCAT | 0.00711
27 | GTTTTTTA | 0.196
28 | ACGCCTGG | -0.127
29 | CATAATAG | 0.16
30 | GTACCACA | -0.0203
31 | CGGGCAAC | -0.108
32 | CTCCTGTA | -0.0581
33 | CAAATAGC | 0.116
34 | CAGTGGCC | -0.197
35 | CCCCTTGC | -0.385
36 | ACGACCGC | -0.195
37 | CTTATAAA | 0.181
38 | CGCAAACA | 0.0526
39 | TCAGAAGA | -0.253
40 | ACTAGTTA | 0.151
41 | ACGGAACG | 0.129
42 | CCTAATAC | -0.0206
43 | ATGGCTGC | -0.285
44 | GTCTAGTA | 0.0398
45 | TATCCGGA | 0.39
46 | CCACAACG | -0.103
47 | ATTCTTTA | 0.253
48 | GCCATGCA | -0.0215

Row | Sequence | PBM E-score
49 | CCGGGGCG | 0.0839
50 | CAATCGTG | -0.13
51 | CATCCACG | -0.212
52 | GCCGTAAA | 0.154
53 | AGTCATAA | 0.0636
54 | CTGGGAAA | -0.0965
55 | AATCAGAC | 0.0694
56 | CAGAGCTG | -0.259
57 | TCATCTAA | 0.154
58 | AGATGACA | -0.0995
59 | GGAGAAAA | 0.198
60 | GCGCGCTA | 0.0469
61 | GTATCTCA | 0.157
62 | AGATTGCG | 0.159
63 | CACCGTCA | -0.171
64 | AAGGTCGA | -0.174
65 | GGTAGTAA | -0.0759
66 | GGTCGAAC | -0.049
67 | ACCTAGGC | -0.145
68 | CATCAGTC | -0.111
69 | ACGTGGAT | -0.165
70 | ACCCCAAC | -0.0979
71 | ACGCAGTG | -0.122
72 | CCGAATAG | 0.119

Row | Sequence | PBM E-score
73 | ACAAAGAC | 0.0725
74 | CTCTAAGC | 0.033
75 | GCTGTGTA | -0.121
76 | CATAGGGA | -0.0219
77 | CCCCCTCA | -0.432
78 | CCACACTC | -0.0546
79 | ACTCTGCT | -0.0559
80 | ATGCGAGC | -0.151
81 | ATACAAAA | 0.288
82 | ACACTTTC | 0.0477
83 | GCACGTAC | -0.266
84 | CCTTTTAG | -0.218
85 | AAATTGAC | 0.159
86 | ATATATAA | 0.351
87 | ATGTCTCA | 0.0455
88 | CCCGTATA | -0.0438
89 | AGTTACTC | 0.142
90 | ACTGTGTA | 0.0481
91 | ATATTTTG | 0.22
92 | ACGCTATA | -0.103
93 | TCCTACGA | -0.185
94 | TTCCCGAA | 0.162
